About 1,200 (2.5%) of roughly 48,000 compounds were called active. Not shown: some 2% with an inconclusive outcome.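 Rule for the calls: active = activation of at least 60% and not above a set upper limit (about 1 call in 100 departs from these limits); inconclusive = activation of 40% to 60%, or above that upper limit; inactive = activation under 40%.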 Some of the results follow.
Molecular target: Probable G-protein coupled receptor 32 (Homo sapiens) (UniProt O75388)
Assay: qHTS for Agonists of Human Resolvin D1 Receptor DRV1; note: 0% is about no effect
Conditions: CHO-K1 GPR32 beta-arrestin PathHunter luminescence, 90 min; at 76.9 µM; active compounds read high; zero percent set by DMSO-only wells
In short: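 Cells are plated overnight, treated with compounds in DMSO for 90 minutes at 37 °C, and developed with PathHunter detection reagent for 1 hour before luminescence is read; signal reflects beta-arrestin binding to GPR32 in engineered CHO-K1 cells.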

Sequence of UniProt O75388 (O75388 whole entry, looked up): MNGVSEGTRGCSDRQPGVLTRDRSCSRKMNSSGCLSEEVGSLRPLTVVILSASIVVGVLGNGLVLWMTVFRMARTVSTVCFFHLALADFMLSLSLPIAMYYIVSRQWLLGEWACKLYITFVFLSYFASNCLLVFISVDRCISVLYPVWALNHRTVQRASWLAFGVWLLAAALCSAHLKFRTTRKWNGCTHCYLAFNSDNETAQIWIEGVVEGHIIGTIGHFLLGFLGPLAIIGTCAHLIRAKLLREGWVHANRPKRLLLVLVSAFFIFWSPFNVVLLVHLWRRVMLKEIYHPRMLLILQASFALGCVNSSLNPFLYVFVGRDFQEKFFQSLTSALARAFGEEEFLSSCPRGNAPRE

activation, inactive:
CCN(CC)C(=O)CSc1nc(-c2ccccc2)cc(-c2ccc(OC)cc2)c1C#N 1.57%
Cc1ccc(C)c(NC(=O)CCc2nc3cccnc3n2Cc2cccs2)c1 -4.18%
Cc1cc2nc(NC(=O)c3ccc(S(=O)(=O)N4CCOCC4)cc3)sc2cc1C -4.68%
COc1ccccc1-c1noc(-c2ccc(NCc3ccccc3)c([N+](=O)[O-])c2)n1 -29.9%
COc1ccc(C2Nc3ccccc3-n3c(-c4ccccc4)c4c(=O)n(C)c(=O)n(C)c4c32)cc1 (centres undefined) 0.293%
COCCCN1CN=C(NS(=O)(=O)c2ccc(NC(C)=O)cc2)NC1 -2.86%
COc1ccc(C)cc1NC(=O)CN(C)S(=O)(=O)c1ccc2c(c1)CCCN2C(C)=O 1.69%
Cc1ccc(-n2nc3c(N4CCC(C(=O)NCCc5ccccc5)CC4)nnc(C)c3c2C)cc1 1.87%
CCOc1ccc(NC(=O)Nc2cccc(C)n2)cc1 -3.81%
COc1ccc(C)cc1NC(=O)CN1C(=O)CSc2ccc(S(=O)(=O)N3CCCC3)cc21 -22.2%
CC1=C(c2cccc(Cl)c2)S(=O)(=O)NC1=NCc1ccccc1C -10.4%
CCC(=O)N1CCc2cc(S(=O)(=O)N3CCN(c4ccccc4F)CC3)ccc21 4.66%
COc1cc(OC)c(NC(=O)Cn2nc(C)n3cccc3c2=O)cc1Cl -6.12%
COc1ccc(N2Cc3cccc(C(=O)Nc4ccc(C)cc4)c3C2=O)cc1 10.9%
CCOC(=O)c1sc2ccccc2c1S(=O)(=O)N1CCN(c2ccccc2F)CC1 -14.3%
O=C(NCCS(=O)(=O)N1CCN(c2ccccc2F)CC1)C1CC(=O)N(c2ccc(F)cc2)C1 (centres undefined) -8.37%
Cc1ccc(S(=O)(=O)C(CNS(=O)(=O)c2ccc(F)c(C)c2)c2cccs2)cc1 (centres undefined) -25.1%
CCc1ccccc1N(CC)C(=O)Cn1nc(Cc2ccncc2)c2ccccc2c1=O -9.44%
Cc1ccc(-n2cnc3cc(C(=O)NCCC4=CCCCC4)ccc32)cc1Cl -18.6%
Cc1cccc(NC(=O)COc2ccc3oc4c(c3c2)CCCC4)c1 27.3%
Cc1ccc(OCC(=O)Nc2cccc3ccc(C)nc23)c(C)c1 5.49%
O=C(CCc1nc(-c2cccs2)no1)Nc1ccc([N+](=O)[O-])cc1 8.92%
COc1ccc(CNC(=O)C(=O)NCC(c2cccs2)S(=O)(=O)c2cccs2)cc1 (centres undefined) 1.2%
CCOc1ccccc1NC(=O)Cn1nc(N2CCN(c3ccccc3)CC2)ccc1=O 22.3%
Cn1c(/C(C#N)=C/c2ccc(C(F)(F)F)cc2)nc2ccccc21 -13.6%
O=C(NCc1ccccc1Cl)c1ccc(-n2cnc3cccnc32)cc1 23.5%
O=C(CCC1N=C2c3ccccc3N=C(SCC(=O)NCCc3ccccc3)N2C1=O)NCc1ccc(F)cc1 (centres undefined) -18.3%
CCC(NC(=O)Nc1cccc(C)c1)c1c(-n2cccc2)sc2c1CCN(C)C2 (centres undefined) -28.4%
Cc1cn2c(=O)c(S(=O)(=O)NCc3ccc(F)cc3)c(C)nc2s1 -12.6%
Cc1ccc(CNC(=O)CSCc2nc(-c3cccc(C)c3)oc2C)cc1 -2.54%
O=C(Cn1c(=O)n(-c2ccccc2Cl)c(=O)c2sc3ccccc3c21)NC1CCCC1 -9.36%
CCOc1ccc(-c2nnc(SCC(=O)N(CC)c3cccc(C)c3)o2)cc1 10.3%
CCOc1ccc(OCC)c(NC(=O)C2CCCN(S(=O)(=O)c3ccc(C)cc3)C2)c1 (centres undefined) -9.45%
CCCN(CCC)C(=O)Cn1c(=O)n(-c2ccc(Cl)c(Cl)c2)c(=O)c2c(C)c(C(=O)N(C)C)sc21 -8.14%
COc1ccc(-c2c(C)nn3c(N4CCN(c5cc(Cl)ccc5C)CC4)cc(C)nc23)cc1OC -58.6%
Cc1ccn2c(Nc3ccc4c(c3)OCCO4)c(-c3ccc(N(C)C)cc3)nc2c1 -5.25%
O=C(O)CCC(=O)c1ccc(-c2ccccc2)cc1 1.72%
COc1ccccc1CNC(=O)CSc1cc(C)[nH]c(=O)n1 -3.76%
Cc1ccc(NC(=O)CN(c2ccc(C)cc2)S(=O)(=O)c2cccc3nonc23)cc1 -19.4%
CCOc1ccccc1NC(=O)CCc1c(C)nc2cc(-c3ccccc3)nn2c1C 4.44%
Cc1cccc(NC(=O)c2c(NC(=O)c3ccco3)sc3c2CCC(C)C3)c1 (centres undefined) 3.78%
CCOCCCn1c(=N)c(C(=O)NCc2ccccc2)cc2c(=O)n3ccccc3nc21 -5.62%
COc1cccc(NC(=O)Cn2c(=O)n(CCc3cccc(C)c3)c(=O)c3ccccc32)c1 33.8%
Cc1c2cnn(-c3ccccc3)c(=O)c2c(C)n1C(C)C(=O)NCc1cccc(Br)c1 (centres undefined) -27.2%
CCCN(CCC)C(=O)c1nn(C)c2c1CSc1ccccc1-2 -18.7%
Cc1ccc(NC(=O)Cn2nc(-c3ccccc3)nc(Cc3ccccc3)c2=O)cc1 -7.85%
COc1cccc(CNC(=O)c2ccc3c(c2)nc2n3CCC(C)C2)c1 (centres undefined) -14.3%
COc1ccc(-n2nc(-c3ccc(C)cc3)c3cnc4cc(F)c(F)cc4c32)cc1 -3.96%
CCc1nc2nc(C)c(NS(=O)(=O)c3ccc(F)c(C)c3)c(=O)n2[nH]1 -1.68%
Cc1ccccc1C(=O)Nc1ccccc1-c1nc(-c2ccccc2)no1 -6.9%
Cc1nc(-c2cccc(F)c2)sc1CCNC(=O)C(=O)Nc1ccc2c(c1)OCCO2 22.5%
Cc1ccc(NC(=O)CSc2nc3ccccc3n2CC(=O)N(C)C2CCCCC2)cc1C -3.63%
CC(C(=O)Nc1ccccc1)n1nnc2sc3c(c2c1=O)CCCC3 (centres undefined) -5.88%
CCOc1ccc2nc(N3CCCC(C(=O)NCCc4ccc(C)cc4)C3)sc2c1 (centres undefined) -4.84%
CCCCn1c(CNC(=O)C23CC4CC(CC(C4)C2)C3)nnc1SCC(=O)Nc1ccc(F)cc1 38.7%
Cc1cccc(NC(=O)Nc2nnc(N3CCCC3)s2)c1 -5.53%
Cc1cccc(Cn2c(=O)n(Cc3ccccc3)c(=O)c3sc4ccccc4c32)c1 -8.35%
Cc1ccc(NC(=O)C2CCCN2S(=O)(=O)c2ccc3nc(-c4ccccc4)[nH]c3c2)cc1C (centres undefined) -3.25%
Cc1cc(C(=O)NCc2ccccc2)c2c(C)nn(-c3cccc(Cl)c3C)c2n1 -7.52%
CCOC(=O)c1[nH]c(C)c(CCC(=O)Nc2cc(Cl)c(OC)cc2OC)c1C -24.7%
Cc1ccc(CCNC(=O)c2ccc3c(c2)N(Cc2ccc(F)cc2)CCS3)cc1 -16.5%
CCC(C)NC(=O)c1cn(CC)c2ccc(S(=O)(=O)N3CCc4ccccc4C3)cc2c1=O (centres undefined) 3.75%
O=C(NCc1ccccc1Cl)c1ccc2c(c1)N(Cc1ccccc1)CCS2 -23.1%
O=C(CSc1nc2ccccc2n1Cc1cccc(F)c1)N1CCN(c2ccc(F)cc2)CC1 -5.27%
O=C(NC1CCCCCC1)c1ccc(CS(=O)c2cccc(Cl)c2)o1 (centres undefined) -17%
Cc1cc(C)c(NC(=O)Cn2c(=O)n(CC(=O)NCCc3ccccc3)c(=O)c3ccccc32)c(C)c1 -0.139%
Cc1nc(-c2ccc(C)c(S(=O)(=O)N3CCC(C(=O)NCc4ccc(F)cc4)CC3)c2)no1 -0.296%
CCCCc1ncc(/C=C(\Cc2cccs2)C(=O)O)n1Cc1ccc(C(=O)O)cc1 -41.7%
Cc1cccc(-n2nnc(-c3nc(-c4cccs4)no3)c2N)c1 4.79%
Cc1ccc(C)c(CNC(=O)CN2C(=O)CSc3ccc(S(=O)(=O)N(C)C)cc32)c1 2.49%
Cc1cc(N2CCC(C)CC2)nc2ccc(NC(=O)CCC(=O)N3CCN(c4ccccc4F)CC3)cc12 -27.9%
O=S(=O)(c1ccc2nc(Nc3ccc(F)cc3)ccc2c1)N1CCCC1 -19%
CCc1ccc(NC(=O)Cn2c(=O)n(CCc3ccccc3)c(=O)c3sc4ccccc4c32)cc1 -3.81%
N[C@@H](Cc1ccc(O)c(O)c1)C(=O)O 2.13%
CC(=O)c1cccc(N2C(=O)CN(S(C)(=O)=O)CC2(C)C(=O)NC2CCCC2)c1 (centres undefined) 2.93%
COc1ccccc1N1CCN(S(=O)(=O)CCNC(=O)C(c2ccccc2)c2ccccc2)CC1 -29.9%
O=C1NC2CCCCN2C12CCN(CCCN1c3ccccc3CCc3ccc(Cl)cc31)CC2 (centres undefined) -11%
COc1ccc(S(=O)(=O)N(CCc2ccccc2)CC(=O)Nc2cc(C)cc(C)c2)cc1OC -10.3%
CC1=C(c2ccc(C(C)C)cc2)S(=O)(=O)NC1=NCc1ccc(Cl)cc1 -5.31%
COCCCNC(=O)C1CCN(c2nc3ccc(Cl)cc3[nH]2)CC1 -2.24%
CCCCCCCCOc1ccccc1C(=O)Nc1ccc(C(=O)OCC[N+](C)(CC)CC)cc1 -55.9%
Cc1sc2ncn(CC(=O)N3CCN(c4ccccc4)CC3)c(=O)c2c1S(=O)(=O)N1CCC(C)CC1 -14.4%
CCc1ccc2occ(CC(=O)Nc3ccc(C)c(C)c3)c2c1 33.5%
CCOC(=O)c1ccccc1NC(=O)c1nn(-c2ccc(OC)c(Cl)c2)c(=O)c2c1c1ccccc1n2C 15.9%
